Source: PubChem BioAssay AID445 (National Center for Advancing Translational Sciences (NCATS), 2006)
About 40 (0.04%) of roughly 110,000 compounds were called active. The inconclusive results got no clear call from the source; some entries with a clear call stand among them for comparison. The call rests on the fitted dose curve; in most records, active means well fitted curve in the direction sought with a large enough effect in the signal ratio (not every such curve was filed as active); inconclusive means small, poorly fitted or top-dose-only effect, or a change in a side signal; inactive means flat fitted curve, though single readings scatter; the % refers to the signal ratio. A potency beside an inconclusive call is a rough fit, not a confirmed value.

Experiment: IkB Signaling;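 on IkBa stabilization activation: 0% = basal untreated cells and 100% = reference inhibitor full response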
Settings: ABC-DLBCL IkBa-CBG/CBR dual luciferase ratio (green luciferase fused to IkBa over red control in OCI-Ly3 lymphoma cells), 4 h; IkBa stabilization activation: at 57.1 µM (top of the series), scaled: untreated 0%, proteasome inhibitor 100% unless noted
How it was run: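 In this assay, an IκBα–CBG68 fusion accumulates when IKK-driven degradation is blocked; native CBR normalizes for cell number. OCI-Ly3 cells were treated 4 h with compound and doxycycline, then green and red light read after Chroma-Glo addition.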
Potency means the concentration at half of the fitted maximal effect.

| Compound | IkBa stabilization activation | Potency |
| --- | --- | --- |
| COc1ccccc1NC(=O)Cn1c(=O)n(-c2cccc(C(C)=O)c2)c(=O)c2c3c(sc21)CN(C(C)=O)CC3 | inconclusive: 1.95% [signal inhibitor] |  |
| O=C1CC(c2nc3ccccc3[nH]2)CN1c1cccc(C(F)(F)F)c1 (stereo not given) | inconclusive: 8.56% [signal inhibitor] |  |
| Cc1ccc(C2C=C(c3ccc(Cl)cc3)Nc3nc(NS(=O)(=O)c4ccccc4)nn32)cc1 (stereo not given) | inconclusive: 6.23% [signal inhibitor] |  |
| O=C(CCC1N=C2c3ccccc3N=C(SCC(=O)Nc3ccccc3F)N2C1=O)NCc1ccccc1 (stereo not given) | inconclusive: 8.74% [signal inhibitor] |  |
| CCC(C)Sc1nc2c(cnn2-c2ccccc2)c(=O)[nH]1 (stereo not given) | inactive: -0.296% |  |
| COc1cccc(NC(=O)CSC2=Nc3ccccc3C3=NC(CC(=O)NCCc4ccccc4)C(=O)N23)c1 (stereo not given) | inactive: -0.0298% |  |
| Cc1ccc(CNC(=O)CCCCn2c(=O)c3ccccc3n(Cc3c(C)cc(C)cc3C)c2=O)cc1 | inconclusive: 3.56% [signal inhibitor] |  |
| CCOC(=O)c1ccccc1NC(=O)Cn1c(=O)n(Cc2nc(-c3ccccc3)no2)c(=O)c2ccccc21 | inconclusive: 5.99% [signal inhibitor] |  |
| COc1ccc(OC)c(S(=O)(=O)N2CCC(c3ccncc3)CC2)c1 | inactive: 0.0438% |  |
| CCc1ccc(-n2c(SCc3ccccc3F)nc3[nH]ncc3c2=O)cc1 | inconclusive: -4.07% [signal inhibitor] |  |
| COc1cc(OC)cc(-c2nc(-c3ccccc3OC)no2)c1 | inactive: -2.13% |  |
| O=C(c1ccc2c(c1)N(Cc1ccccc1F)C(=O)c1ccccc1S2(=O)=O)N1CCCCC1 | inconclusive: -1.77% [signal inhibitor] |  |
| COc1cccc(NC(=O)CSC2=Nc3ccccc3N=C(c3ccc(F)cc3)C2)c1 | inconclusive: 4.05% [signal inhibitor] |  |
| C[C@]12C[C@H](O)[C@H]3[C@@H](CCC4=CC(=O)CC[C@@]43C)[C@@H]1CC[C@@H]2C(=O)CO | inconclusive: 1.9% [signal activator] |  |
| c1cncc(Nc2nc(-c3cccnc3)cs2)c1 | inactive: -9.14% |  |
| Oc1ccc(COCc2ccccc2)c2cccnc12 |  | inconclusive: 5.01 µM [rising, full curve] |
| Cc1ccc2nc(-c3ccsc3)c(Nc3ccccc3C)n2c1 | inconclusive: -0.82% [signal inhibitor] |  |
| COc1ccccc1/C=C/c1nc(C#N)c(N2CCCCC2)o1 | inconclusive: 0.553% [signal inhibitor] |  |
| Cc1nc2nncn2c(N2CCN(c3ccccc3)CC2)c1C | inconclusive: -0.888% [signal inhibitor] |  |
| C/C(=C\C(=O)Nc1nccs1)c1ccccc1 | inconclusive: 1.28% [signal inhibitor] |  |
| COc1ccccc1NC(=O)c1oc2ccccc2c1NC(=O)c1cc(OC)c(OC)c(OC)c1 | inactive: 1.17% |  |
| Cc1ccc(OCC(=O)N2CCCCC2)c(Br)c1 | inactive: 1.08% |  |
| COc1cccc(-c2cncnc2NCc2ccccc2)c1 | inactive: 3% [at 11.4 µM, scaled: untreated 0%, proteasome inhibitor 100%] |  |
| COC(=O)c1scc(-c2ccccc2)c1S(=O)(=O)Nc1ccccc1 | inconclusive: -0.317% [signal inhibitor] |  |

| Compound | IkBa stabilization activation | Potency |
| --- | --- | --- |
| COc1ccc(-n2c(/C=C/c3ccccc3F)nc3cc(OC)c(OC)cc3c2=O)cc1Cl | inactive: -0.622% |  |
| O=C1c2ccccc2C(=O)C1(c1ccccc1)N1CCN(c2cccc(Cl)c2)CC1 | inconclusive: 6.68% [signal inhibitor] |  |
| CC(C)c1ccc(S(=O)(=O)c2nnn3c2nc(NCCc2ccccc2)c2sccc23)cc1 | inconclusive: 3.16% [signal inhibitor] |  |
| N#CC1=C(N)Oc2c(ccc3cccnc23)C1c1cccnc1 (stereo not given) | inconclusive: 5.65% [signal inhibitor] |  |
| CC(=O)Nc1ccc(S(=O)(=O)NCC2CCC(C(=O)NCCc3ccccc3)CC2)cc1 (stereo not given) | inconclusive: 2.43% [signal inhibitor] |  |
| O=C(CSc1nnnn1-c1ccccc1)Nc1nsc(-c2ccc(Cl)cc2)n1 |  | inconclusive: 2 µM [signal inhibitor, full curve] |
| COc1cc(-c2ccno2)ccc1S(=O)(=O)N1CCN(c2cc(C)ccc2C)CC1 | inconclusive: -0.0636% [signal inhibitor] |  |
| COCC(=O)Oc1c(Sc2ccc(C)cc2)c(C)nn1C(C)(C)C | inconclusive: 7.57% [signal inhibitor] |  |
| COc1cccc(N2CC(NC(=O)C(c3ccccc3)c3ccccc3)CC2=O)c1 (stereo not given) | inconclusive: -0.242% [signal inhibitor] |  |
| CC[C@H](CO)NCCN[C@@H](CC)CO | inactive: 0.889% [at 25.6 µM, scaled: untreated 0%, proteasome inhibitor 100%] |  |
| Cc1cc(C(=O)CN2C(=O)NC(C)(c3cccc(Br)c3)C2=O)c(C)n1Cc1ccco1 (stereo not given) | inconclusive: 2.2% [signal inhibitor] |  |
| Cc1cc(C)cc(NC(=O)CCC(=O)N2Cc3ccccc3Oc3ncccc32)c1 | inconclusive: 1.88% [signal inhibitor] |  |
| Cc1ccc(CCNC(=O)c2cc3sccc3n2Cc2ccc(C)cc2)cc1 | inconclusive: 3.59% [signal inhibitor] |  |
| O=C(CSc1nc2ccccc2c(=O)[nH]1)c1ccc(O)c(O)c1 | inactive: -0.508% |  |
| CN(C)Cc1ccc(-c2cc3onc(-c4ccccc4)c3c(=O)n2C)cc1 | inactive: 12.6% [at 11.4 µM, scaled: untreated 0%, proteasome inhibitor 100%] |  |
| c1ccc2nc(-c3nc4ccccc4[nH]3)ccc2c1 |  | inconclusive: 3.98 µM [signal inhibitor, full curve] |
| Cc1c(Cl)ccc2sc(NC(=O)c3ccc(S(=O)(=O)N4CCCc5ccccc54)cc3)nc12 | inconclusive: 0.768% [signal inhibitor] |  |
| CCc1ccccc1NC(=O)c1nnn(-c2ccc(F)cc2)c1C |  | inconclusive: 5.01 µM [signal inhibitor] |
| CC1CCN(S(=O)(=O)c2ccc3c(c2)oc(=O)n3CC(=O)NCc2ccc(F)cc2)CC1 | inconclusive: 2.8% [signal inhibitor] |  |
| COc1ccc(C(=O)c2cn[nH]c2-c2cc(Cl)ccc2O)cc1 | inconclusive: -2.69% [signal inhibitor] |  |
| Cc1cc(C)nc(NS(=O)(=O)c2ccc(NC(=O)COc3ccc(Cl)cc3C)cc2)n1 | inconclusive: 6.93% [signal inhibitor] |  |
| Cc1nc(SCc2cccc(F)c2)[nH]c(=O)c1C#N |  | inconclusive: 12.6 µM [signal inhibitor, partial curve] |
| C=CCNc1nc(Nc2ccc(OC)cc2OC)nc(OCC)n1 | inactive: 1.92% |  |
| NC(=S)NCCC[C@@H](N)C(=O)O | inactive: 1.63% |  |

| Compound | IkBa stabilization activation | Potency |
| --- | --- | --- |
| CCn1c(SCc2ccccc2)nnc1-c1ccc(S(=O)(=O)N2CCCCC2)cc1 | inconclusive: 4.76% [signal inhibitor] |  |
| Clc1cccc(N2CCN(c3nc4ccccc4n4cnnc34)CC2)c1 | inactive: 0.672% |  |
| C=CCc1ccccc1OCCSc1nc(-c2ccc(C(C)(C)C)cc2)nc2cc(=O)[nH]n12 | inactive: -0.142% |  |
| O=C(CNS(=O)(=O)c1ccc(Br)s1)NCC1COc2ccccc2O1 (stereo not given) | inconclusive: 1.33% [signal inhibitor] |  |
| CCc1ccc2c(-c3cccc(Cl)c3)nc(=O)n(CC)c2n1 | inactive: 0.416% |  |
| COc1cccc(NC(=O)CSc2nc(=O)n(Cc3cccnc3)c3c2CCC3)c1 | inconclusive: 8.85% [signal inhibitor] |  |
| Cc1ccc2nc3c(cc(C#N)c(=O)n3-c3nnc(SCc4ccc(F)cc4)s3)c(=O)n2c1 | inactive: -1.8% |  |
| COc1ccc(CCNC(=O)CCCCn2c(=O)c3ccccc3n(Cc3cc(C)ccc3C)c2=O)cc1OC | inactive: -0.923% |  |
| CCCN(CCC)C(=O)Cn1c(=O)n(-c2ccc(OC)cc2OC)c(=O)c2c3c(sc21)CCC3 | inconclusive: 3.34% [signal inhibitor] |  |
| Cc1ccc(Sc2ccc(N3CCCC(C(=O)Nc4ccc(F)c(Cl)c4)C3)nn2)cc1 (stereo not given) | inconclusive: 0.101% [signal inhibitor] |  |
| Cc1ccc(C(c2nnnn2C(C)(C)C)N2CCN(C3CCCC3)CC2)cc1 (stereo not given) | inactive: -0.024% |  |
| CCOc1ccc(-n2c(SCc3ccccc3)nc3c([nH]c4ccccc43)c2=O)cc1 | inactive: -0.952% |  |
| NC(=O)c1nc(Nc2ccccc2)sc1NC(=O)c1c(F)cccc1F | inconclusive: -0.892% [signal inhibitor] |  |
| CS(=O)(=O)N(Cc1ccccc1)c1ccc(C(=O)NC2CCCCC2O)cc1 (stereo not given) |  | inconclusive: 20 µM [signal inhibitor, partial curve] |
| CCOC(=O)c1ccc(NC(=O)c2c(NCc3sccc3C)sc3c2CCC(C)C3)cc1 (stereo not given) | inconclusive: 9.03% [signal inhibitor] |  |
| CN1CCN(C(CNC(=O)C(=O)Nc2ccc(Cl)cc2)c2cccnc2)CC1 (stereo not given) | inconclusive: -3.1% [signal inhibitor] |  |
| Cc1ccc(C)c(N2CCN(C(=O)CCc3nnc4n(C)c(=O)c5ccccc5n34)CC2)c1 | inconclusive: 2.98% [signal inhibitor] |  |
| CCOCCCNC(=O)c1c[nH]c2ccc(S(=O)(=O)N(C)c3ccc(Cl)cc3F)cc2c1=O | inconclusive: 1.82% [signal inhibitor] |  |
| CCOC(=O)c1cccnc1SCC(=O)N(CC)c1cccc(C)c1 | inconclusive: 0.268% [signal inhibitor] |  |
| COc1cccc(-c2nn(C)c3sc(C(=O)N4CCOCC4)cc23)c1 | inactive: -0.203% |  |
| CC(C)Cn1nc(NC(=O)c2cccc(Cl)c2)c2cc3ccccc3nc21 | inconclusive: 0.379% [signal inhibitor] |  |
| CCc1ccccc1NC(=O)c1oc(=O)c2ccccc2c1-c1ccccc1 | inconclusive: -1.59% [signal inhibitor] |  |
